# From the supplement of paper PMC10037445
# Several values for one entry are separate records, joined by “and”; a condition that tells them apart may be missing. Equal values may be shown once. The full ranking holds about 2,900 compounds; the median of “IRF Lucia reporter activity, fold change vs agonist alone” is about 0.9, and the highest 2% start at about 2.8. The list shows a part of the results.
# Experiments:
# [1] = test system: RAW-Dual; assay: IRF Lucia reporter activity, fold change vs agonist alone; cytotoxicity flag (confluency mask): cytotoxic (confluency <70% of control); higher = enhanced IRF activity
# Outline: (§1)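 Reporter activity is given as fold change relative to agonist-alone wells. To measure it, 50 nL of library stock was pin-tooled onto RAW-Dual macrophages (50,000 cells/well, DMEM, 384-well plates), a PRR agonist followed 1 h later, and cells stayed at 37 °C, 5% CO2. Twenty hours on, supernatant was assayed for IRF (QuantiLuc luminescence) and NF-κB (QuantiBlue, 620 nm absorbance), and wells under 70% of agonist-control IncuCyte confluency in both mask sets were marked cytotoxic.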
# [2] = test system: RAW-Dual; assay: IRF Lucia reporter activity, fold change vs agonist alone; cytotoxicity flag (confluency mask): not cytotoxic; higher = enhanced IRF activity
# Outline: as §1
# [3] = test system: RAW-Dual; assay: IRF Lucia reporter activity, fold change vs agonist alone; higher = enhanced IRF activity; details: cytotoxicity flag (confluency mask): not cytotoxic, agonist: MPLA (TLR4) […]
# Outline: as §1
# [4] = agonist: 3'3'-cGAMP (STING) 10 ug/mL
# [5] = library stock concentration (final ~1000-fold dilution): 10 mM
smiles,measurement,setting,value
Cc1nc(Nc2cnn(C3CCNCC3)c2)nc2c1N(C)C(=O)c1cc3ccccc3cc1N2C (library stock concentration (final ~1000-fold dilution): 10 mM),IRF Lucia reporter activity,[1]; [4],1.96
same,IRF Lucia reporter activity,[1]; agonist: LPS (TLR4) 0.1 ug/mL,3.05
NC(=O)c1cnc(NCCc2ccc(O)c(Cl)c2)nc1NCc1ccccc1 (library stock concentration (final ~1000-fold dilution): 10 mM),IRF Lucia reporter activity,[1]; [4],0.0146
same,IRF Lucia reporter activity,[1]; agonist: LPS (TLR4) 0.1 ug/mL,0.0156
CC(C)(CNC(=O)c1cccc(-c2noc(C(F)(F)F)n2)c1)c1coc(-c2ccccc2)n1 (library stock concentration (final ~1000-fold dilution): 10 mM),IRF Lucia reporter activity,[2]; [4],0.977
same,IRF Lucia reporter activity,[2]; agonist: LPS (TLR4) 0.1 ug/mL,0.867
CCNC(=O)Nc1ccc(-c2nc(N3CCOCC3C)c3c(n2)C(C)(C)S(=O)(=O)C3)cc1 (stereo unspecified) (library stock concentration (final ~1000-fold dilution): 10 mM),IRF Lucia reporter activity,[2]; [4],0.489
same,IRF Lucia reporter activity,[2]; agonist: LPS (TLR4) 0.1 ug/mL,0.946
COc1cc2c(cc1OC)C(=O)C(CC1CCN(Cc3ccccc3)CC1)C2.Cl (stereo unspecified) (library stock concentration (final ~1000-fold dilution): 10 mM water),IRF Lucia reporter activity,[2]; [4],1.14
same,IRF Lucia reporter activity,[2]; agonist: LPS (TLR4) 0.1 ug/mL,0.724
COc1cc2c(cc1OC)C(=O)C(CC1CCN(Cc3ccccc3)CC1)C2.Cl (stereo unspecified),IRF Lucia reporter activity,[3]; library stock concentration (final ~1000-fold dilution): 10 mM water,1.25
Cc1ccc(Nc2c(F)cccc2Cl)c(CC(=O)O)c1 (library stock concentration (final ~1000-fold dilution): 10 mM),IRF Lucia reporter activity,[2]; [4],0.873
same,IRF Lucia reporter activity,[2]; agonist: LPS (TLR4) 0.1 ug/mL,0.891
Cc1ccc(Nc2c(F)cccc2Cl)c(CC(=O)O)c1,IRF Lucia reporter activity,[3]; [5],0.896
O=C(O)c1cc(O)c2c(c1)C(=O)c1cccc(O)c1C2=O,IRF Lucia reporter activity,[3]; [5],1.03
O=C(O)c1cc(O)c2c(c1)C(=O)c1cccc(O)c1C2=O (library stock concentration (final ~1000-fold dilution): 10 mM),IRF Lucia reporter activity,[2]; [4],1.01 and 0.974
same,IRF Lucia reporter activity,[2]; agonist: LPS (TLR4) 0.1 ug/mL,1.09 and 1.15
CC(Oc1ccc2c(c1)OCCn1cc(-c3ncnn3C(C)C)nc1-2)C(N)=O (stereo unspecified) (library stock concentration (final ~1000-fold dilution): 10 mM),IRF Lucia reporter activity,[2]; [4],0.388
same,IRF Lucia reporter activity,[2]; agonist: LPS (TLR4) 0.1 ug/mL,1.76
Cl.NC1=NCC2c3ccccc3Cc3ccccc3N12 (stereo unspecified),IRF Lucia reporter activity,[3]; [5],1.21
Cl.NC1=NCC2c3ccccc3Cc3ccccc3N12 (stereo unspecified) (library stock concentration (final ~1000-fold dilution): 10 mM),IRF Lucia reporter activity,[2]; [4],1.09
same,IRF Lucia reporter activity,[2]; agonist: LPS (TLR4) 0.1 ug/mL,1.42
O=c1cc(-c2cccc3c2Sc2ccccc2S3)oc(N2CCOCC2)c1,IRF Lucia reporter activity,[3]; [5],6.25
O=c1cc(-c2cccc3c2Sc2ccccc2S3)oc(N2CCOCC2)c1 (library stock concentration (final ~1000-fold dilution): 10 mM),IRF Lucia reporter activity,[2]; [4],0.647
same,IRF Lucia reporter activity,[2]; agonist: LPS (TLR4) 0.1 ug/mL,5.22
CNCC(O)C(O)C(O)C(O)CO.Cc1c(Nc2ncccc2C(=O)O)cccc1C(F)(F)F (library stock concentration (final ~1000-fold dilution): 10 mM),IRF Lucia reporter activity,[2]; [4],0.986
same,IRF Lucia reporter activity,[2]; agonist: LPS (TLR4) 0.1 ug/mL,1.05
CNCC(O)C(O)C(O)C(O)CO.Cc1c(Nc2ncccc2C(=O)O)cccc1C(F)(F)F,IRF Lucia reporter activity,[3]; [5],0.964
CC(C)NCC(O)COc1ccc(CCOCC2CC2)cc1.Cl (stereo unspecified) (library stock concentration (final ~1000-fold dilution): 10 mM),IRF Lucia reporter activity,[2]; [4],0.997
same,IRF Lucia reporter activity,[2]; agonist: LPS (TLR4) 0.1 ug/mL,0.947
CC(C)NCC(O)COc1ccc(CCOCC2CC2)cc1.Cl (stereo unspecified),IRF Lucia reporter activity,[3]; [5],0.75
C=CC(=O)N1CCC(C2CCNc3c(C(N)=O)c(-c4ccc(Oc5ccccc5)cc4)nn32)CC1 (stereo unspecified) (library stock concentration (final ~1000-fold dilution): 10 mM),IRF Lucia reporter activity,[2]; [4],0.563
same,IRF Lucia reporter activity,[2]; agonist: LPS (TLR4) 0.1 ug/mL,0.593
CC(C)N(CCC(c1ccccc1)c1cc(CO)ccc1O)C(C)C (stereo unspecified) (library stock concentration (final ~1000-fold dilution): 10 mM),IRF Lucia reporter activity,[2]; [4],0.857
same,IRF Lucia reporter activity,[2]; agonist: LPS (TLR4) 0.1 ug/mL,0.982
CC(C)N(CCC(c1ccccc1)c1cc(CO)ccc1O)C(C)C (stereo unspecified),IRF Lucia reporter activity,[3]; [5],0.986
Cc1[nH]c2ccccc2c1CCNC(=O)c1cccs1,IRF Lucia reporter activity,[3]; [5],1.07
Cc1[nH]c2ccccc2c1CCNC(=O)c1cccs1 (library stock concentration (final ~1000-fold dilution): 10 mM),IRF Lucia reporter activity,[2]; [4],1.02
same,IRF Lucia reporter activity,[2]; agonist: LPS (TLR4) 0.1 ug/mL,0.989
COc1ccc(/C=C/C(=O)O)cc1OC (library stock concentration (final ~1000-fold dilution): 10 mM),IRF Lucia reporter activity,[2]; [4],0.933
same,IRF Lucia reporter activity,[2]; agonist: LPS (TLR4) 0.1 ug/mL,0.935
CC12CC3CC(C)(C1)CC(N)(C3)C2.Cl,IRF Lucia reporter activity,[3]; [5],1.17
CC12CC3CC(C)(C1)CC(N)(C3)C2.Cl (library stock concentration (final ~1000-fold dilution): 10 mM),IRF Lucia reporter activity,[2]; [4],1.24
same,IRF Lucia reporter activity,[2]; agonist: LPS (TLR4) 0.1 ug/mL,1.01
Cc1nc2ccc(-n3ncc(C(=O)c4cc5ccccc5[nH]4)c3N)cc2[nH]1 (library stock concentration (final ~1000-fold dilution): 10 mM),IRF Lucia reporter activity,[2]; [4],0.0669
same,IRF Lucia reporter activity,[2]; agonist: LPS (TLR4) 0.1 ug/mL,0.752
